# Test results as given in the BET-seq Pho4 binding data (Le et al. 2018).
# Some of the results follow. The energies were worked out here from pooled read counts, against the library average; single values are noisy.
# Biological target: T1, Pho4 (S. cerevisiae) (UniProt P07270)
# T1 sequence: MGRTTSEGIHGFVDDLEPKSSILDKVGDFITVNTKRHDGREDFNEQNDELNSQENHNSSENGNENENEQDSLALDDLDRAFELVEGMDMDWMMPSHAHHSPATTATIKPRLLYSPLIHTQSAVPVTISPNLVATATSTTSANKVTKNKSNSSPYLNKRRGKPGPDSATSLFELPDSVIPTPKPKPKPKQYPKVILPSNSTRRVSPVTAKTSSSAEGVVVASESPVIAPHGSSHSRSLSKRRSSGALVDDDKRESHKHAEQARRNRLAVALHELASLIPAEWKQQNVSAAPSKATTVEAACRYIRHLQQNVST
# Test: relative binding free energy (BET-seq); higher = weaker binding
# Conditions: reference: library average
row,Sequence,relative binding free energy [kcal/mol]
1,TAAGTCACGTGGGGCG,0.03
2,TTCGGCACGTGGTTGC,-0.05
3,GGTGGCACGTGGAAAA,0.2
4,AGCATCACGTGGTTTG,0.24
5,TGAAGCACGTGGGGTC,-0.28
6,GGAATCACGTGCGGGT,0.16
7,TGTCGCACGTGTGAGG,0.05
8,TGGTTCACGTGGAGTT,0.26
9,ATGGACACGTGTGGTA,0.05
10,TTGAGCACGTGCTGTG,-0.14
11,TCAAGCACGTGTTAGG,-0.14
12,GGTGGCACGTGATTAA,0.03
13,CTAGTCACGTGGGAGT,0
14,TTGGGCACGTGGAGGG,-0.03
15,TTATGCACGTGTTTTT,0.05
16,TTGGACACGTGGTGCA,-0.1
17,CGCATCACGTGTTGTT,0.14
18,TTTCGCACGTGGGTGC,-0.12
19,TTTTACACGTGTCTCT,0.13
20,GGAACCACGTGGGGGA,-0.16
21,GGATGCACGTGATTAT,0.16
22,GTGACCACGTGTGTAT,0.13
23,GAGTGCACGTGAAATT,0.32

row,Sequence,relative binding free energy [kcal/mol]
1,TGGTACACGTGTCATG,-0.04
2,GTTTGCACGTGGCTTG,-0.01
3,GTAGTCACGTGGGCAG,0.04
4,TTTGTCACGTGATGAG,0.23
5,GTTAGCACGTGATGAG,0.13
6,AGTTTCACGTGTTTCG,0.21
7,AGTTTCACGTGAGTCT,0.25
8,TTTTTCACGTGGGCTC,0.18
9,GTTCGCACGTGATAGT,0.21
10,GAGTTCACGTGGAAGG,0.38
11,GTTGCCACGTGGAGTA,-0.16
12,GTTGCCACGTGGGGAT,-0.1
13,TTTGGCACGTGATGCC,-0.01
14,GGTGTCACGTGTCGAA,0.18
15,TCGGTCACGTGTTAAT,0.17
16,TTTAACACGTGTATCT,0.05
17,GTATGCACGTGGTGCA,-0.2
18,GGTAGCACGTGAAGTC,0.3
19,GTGCGCACGTGTGTTT,0.04
20,TCTTGCACGTGAAAGG,0.16
21,GAGGTCACGTGTTGGG,0.18
22,TAGGACACGTGTGAAG,0.05
23,ATAGGCACGTGGGATA,-0.32

row,Sequence,relative binding free energy [kcal/mol]
1,ATGTACACGTGGGGCA,-0.13
2,TAGTGCACGTGGAAGG,0.08
3,TTGGACACGTGAGAAG,0.37
4,GCCTTCACGTGGTTTG,0.23
5,GGTTTCACGTGATGGG,0.48
6,TTGGGCACGTGTCGCG,-0.11
7,TTTGGCACGTGGCTTA,-0.12
8,AGGGGCACGTGATGTT,0.11
9,ATTTGCACGTGTCTTG,0
10,AGAGTCACGTGGAACG,0.24
11,TGTTCCACGTGTTATT,0
12,GGTAGCACGTGTTGGG,-0.03
13,AGGGCCACGTGGCGTG,-0.21
14,GGTCTCACGTGTTGGG,0.37
15,GAAGTCACGTGTTATT,-0.02
16,ATTTTCACGTGTTGAG,0.18
17,GTATTCACGTGAGGGT,0.39
18,ATTGGCACGTGCGGAT,-0.17
19,TATAGCACGTGTAGTT,-0.03
20,GGCAACACGTGGGTTT,-0.16
21,TTTTTCACGTGGAGTT,0.29
22,AGTGTCACGTGCTCGG,0.13
23,TTGTTCACGTGATGTG,0.4

row,Sequence,relative binding free energy [kcal/mol]
1,GGGGACACGTGGAGAT,0.08
2,TTCTGCACGTGTAGGT,0.13
3,TAGATCACGTGAGGGT,0.3
4,GGACTCACGTGAATGG,0.44
5,GAAACCACGTGGGGTT,0.05
6,AATTGCACGTGGCGGG,-0.01
7,GATTGCACGTGAGGAT,0.24
8,TGGTACACGTGTTCGA,0
9,TTAGGCACGTGTGGAG,-0.06
10,AGCGTCACGTGTGTGT,0.08
11,GTAAGCACGTGTTTGA,0.05
12,GTTTGCACGTGTTATA,0.06
13,GTTATCACGTGGTTAT,0.13
14,TGAGTCACGTGCTTTT,-0.03
15,GTTGACACGTGAAGGC,0.29
16,GTTTGCACGTGGTTTA,0.05
17,GGCTGCACGTGCAGGT,-0.04
18,GTTGGCACGTGAAGGG,0.13
19,ATGGTCACGTGCCGGG,-0.01
20,ATTAGCACGTGTGAGG,-0.03
21,ATGGGCACGTGGGCCG,-0.23
22,TAGGACACGTGGGAGG,-0.04
23,AGTGACACGTGGGGGC,-0.19

row,Sequence,relative binding free energy [kcal/mol]
1,AGTTTCACGTGCAGTG,0.18
2,GTCGGCACGTGTATGG,0
3,AGATGCACGTGGGTGA,-0.13
4,ATTGTCACGTGATGTC,0.15
5,TTAAACACGTGTGGTG,-0.03
6,TCGTGCACGTGTCGAG,0.1
7,ACGTGCACGTGATGTT,-0.04
8,TTATACACGTGAGGTG,0.27
9,GGACGCACGTGTAGGT,0.01
10,AAATACACGTGTAGGT,-0.05
11,GAGGCCACGTGTAGGG,-0.09
12,AAATTCACGTGTGATG,0.26
13,ATCGACACGTGTATGT,0.19
14,AATGTCACGTGATCGT,0.2
15,TGAAGCACGTGTGCAT,-0.02
16,GCTTGCACGTGTTGGG,0.11
17,TCGGTCACGTGGCGTT,-0.02
18,TGTATCACGTGGGAGT,0.05
19,ATATTCACGTGGCGGA,0.27
20,CTTTACACGTGTAAGG,0.18
21,TTTCACACGTGAATTG,0.3
22,TAGTACACGTGGTGGG,0
23,TGGTGCACGTGCAGGT,0.01
